Some of the results follow.

In this test the target is T1, OsWOX13 (Oryza sativa, UniProt Q5QMM3 1-267).
T1 sequence: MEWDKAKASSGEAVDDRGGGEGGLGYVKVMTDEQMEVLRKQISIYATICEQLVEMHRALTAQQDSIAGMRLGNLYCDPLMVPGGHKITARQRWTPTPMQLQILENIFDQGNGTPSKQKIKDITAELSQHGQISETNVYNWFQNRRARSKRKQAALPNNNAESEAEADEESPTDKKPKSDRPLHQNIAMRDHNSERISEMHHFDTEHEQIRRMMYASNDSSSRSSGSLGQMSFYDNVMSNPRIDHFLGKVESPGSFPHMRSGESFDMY
Nature of the test: protein-binding microarray (RPBM); PBS, 2% BSA, 51.3 ng/ul salmon testes DNA, 50 uM zinc acetate, 200 nM TF, 25 C, 1 h; high values mean tight binding. The following applies: protein: recombinant; tags: N-terminal polyhistidine and DsRed monomer fusion (pET32a); label: CyDye5-dUTP incorporated in the synthesized complementary strand; 3' TTTTT single-stranded linker to array surface; dsDNA, one strand shown. In a few lines:
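Using Ni–NTA, transcription factors fused N-terminally to polyhistidine and DsRed were purified after expression in E. coli BL21-CodonPlus. These were incubated at 200 nM with a blocked, double-stranded custom Agilent array for 1 h at 25 °C in a buffer containing 50 µM zinc acetate, and the array was washed. The binding signal is per-feature fluorescence intensity (arbitrary units) on an Axon 4000B scanner.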
Take “GCTAATTGTGAGTTTGTGACCTTCGTTTCGGTTGGGTTGACGGAGTCACCTAGTGCAG”: the binding signal was 34600 fluorescence intensity (a.u.).
Under “GTTAAATTTAGGAGTTGGAGCTATACCAAACAGGCCCTAACGGAGTCACCTAGTGCAG” stands 3420 fluorescence intensity (a.u.); under “GGTTAATCAATCAATCAGTTAATTACACAATTACTCACATCGGAGTCACCTAGTGCAG”, 57300 fluorescence intensity (a.u.).
With “ATACATTGAATTTAAATTTGTATGTTTATGTACTGATGTACGGAGTCACCTAGTGCAG”, the binding signal is 6870 fluorescence intensity (a.u.).
Regarding “GTCGATTACCAATTTTCACTGTTAACACACGGTCAACCCACGGAGTCACCTAGTGCAG”, the binding signal was 20600 fluorescence intensity (a.u.).
With “TGTTGATTTTACCTATCGGATTGGAAGAAGATAACTATTCCGGAGTCACCTAGTGCAG”, the binding signal was 5230 fluorescence intensity (a.u.).
Take “GTATTTGATTTATTTAGTGTTCTTAACATGATGTAAACAACGGAGTCACCTAGTGCAG”: the binding signal is 9930 fluorescence intensity (a.u.).
Under “TCACCCGACATGAATTGATTGATGAGCCCGCAGAGATAATCGGAGTCACCTAGTGCAG” stands 24400 fluorescence intensity (a.u.); under “TTCCAAGATGTTATCACCAATCATCCCATGGCATAACGGACGGAGTCACCTAGTGCAG”, 6240 fluorescence intensity (a.u.); under “TTAAATCAAGATTGAATATATTTTGATAATATGTTTGTTTCGGAGTCACCTAGTGCAG”, 24300 fluorescence intensity (a.u.).
The figure for “AAGATAACTAATTACATAGATTGTATGTAAATTACGAGACCGGAGTCACCTAGTGCAG” is 33200 fluorescence intensity (a.u.).
Under “AATGATCTCACTTGATTGATTTAAGTATATGGAAGTTATACGGAGTCACCTAGTGCAG” stands 32000 fluorescence intensity (a.u.); under “AGGCAAATTATGGAGATTAACCATAGGCTACAGGCCCTTTCGGAGTCACCTAGTGCAG”, 11100 fluorescence intensity (a.u.); under “ACTATCAAATTGAGTAGTATTCAATTTGAACTATTGTGGGCGGAGTCACCTAGTGCAG”, 14200 fluorescence intensity (a.u.).
In the case of “AAATAATTTGTTGTTTCGAAAATTTACAAATCTAATCGCCCGGAGTCACCTAGTGCAG”, the binding signal was 28200 fluorescence intensity (a.u.).
Under “TAAGTTAAATAACTATTAATTGTGGCCTGTGCTCAGCCTTCGGAGTCACCTAGTGCAG” stands 9070 fluorescence intensity (a.u.).
For the sequence “TAGAATTGATTGTGCGAGAGAGATAATTGAACACAGGAATCGGAGTCACCTAGTGCAG”, the binding signal is 47500 fluorescence intensity (a.u.).
Under “ATTGATTTGATTGTATTCATAATCATACAATTATCTTAGCCGGAGTCACCTAGTGCAG” stands 65200 fluorescence intensity (a.u.); under “GTTTAATGATAAATCTAGTAATATTAATTTTACATGATTGCGGAGTCACCTAGTGCAG”, 25600 fluorescence intensity (a.u.); under “AATGATTTGGATGTACCTTTGCTATATGTAATGCTATTTTCGGAGTCACCTAGTGCAG”, 28900 fluorescence intensity (a.u.).
Regarding “TAAATTGATCAAATTGCCATTTGGAGTGCAGTGACGGGCTCGGAGTCACCTAGTGCAG”, the binding signal was 54900 fluorescence intensity (a.u.).
With “CTGATTGGTTAGTAAGAGAATGTTGGTGGTGAAGTTGTTACGGAGTCACCTAGTGCAG”, the binding signal is 29900 fluorescence intensity (a.u.).
Consider “TCCATAAACTAAATTAAGGTTGGGTTTTCTGATGGCATAACGGAGTCACCTAGTGCAG”, for which the binding signal is 9500 ± 697 fluorescence intensity (a.u.).
As to “CATGACAATTAATTAGCATCTCTTCTCTTCTAAATTATTACGGAGTCACCTAGTGCAG”, the binding signal was 27800 fluorescence intensity (a.u.).
“GTTTGATTGCTTAATTAATTTCCAAATGCGCAATCATGCACGGAGTCACCTAGTGCAG”: the binding signal is 64800 fluorescence intensity (a.u.).
Regarding “GATAATTTAGAATTTAAACTTTTACATACATATTCTTAATCGGAGTCACCTAGTGCAG”, the binding signal is 6460 fluorescence intensity (a.u.).
With “ATATTATTAATCATCATATAATGGTGTTATGTGAAGTGTGCGGAGTCACCTAGTGCAG”, the binding signal was 3420 fluorescence intensity (a.u.).
The figure for “CTCAAATTTATAGTTTTGCGATAGTTTGGTCAATGTTTATCGGAGTCACCTAGTGCAG” is 6310 fluorescence intensity (a.u.); for “ACGGACTAATTAAATAAGCATAAAGAACTTAAGTTGATCGCGGAGTCACCTAGTGCAG” it is 18300 fluorescence intensity (a.u.); for “AAAACTAATGAGACTAAATAATTAGTGCAGAAAATTTTGACGGAGTCACCTAGTGCAG” it is 7520 fluorescence intensity (a.u.).
Under “CAGCGGATTAATTACTACCACTACCACAAATAATTCATTACGGAGTCACCTAGTGCAG” stands 7010 fluorescence intensity (a.u.); under “ATAGACAAATTGTTTCTAAGTTTAACTATGTTTATAGACACGGAGTCACCTAGTGCAG”, 9020 fluorescence intensity (a.u.); under “AAAACAGTCATTAGCAAATTATCCTCCTCTTATTAGGACTCGGAGTCACCTAGTGCAG”, 16500 fluorescence intensity (a.u.).
The figure for “AACTGACAGGTGGGGTCACGGGGCAACACCAATTCGTGGGCGGAGTCACCTAGTGCAG” is 5620 fluorescence intensity (a.u.); for “GTTTTGAATAATTAATATTTAATTATTTATGAGCTAATGGCGGAGTCACCTAGTGCAG” it is 34400 fluorescence intensity (a.u.).
Turning to “CACGACCGACCGTTATCATCAATCATCATCGATCCGTTGCCGGAGTCACCTAGTGCAG”, the binding signal was 11600 fluorescence intensity (a.u.).
As for “GTCCAGCTTAAGCTTAATTATCACTCAAAACGGGACAGGGCGGAGTCACCTAGTGCAG”, the binding signal is 3420 fluorescence intensity (a.u.).
The figure for “TCAATTGAATGTTGCGTGAGTGATGATGCCCTTGTGGGACCGGAGTCACCTAGTGCAG” is 3860 fluorescence intensity (a.u.); for “GTGATTGATGAAGTCACCACAGACGCCTCGCTGTCGACGGCGGAGTCACCTAGTGCAG” it is 26000 fluorescence intensity (a.u.); for “TTCAGTTATGTAATTATTGTACCTTTGAAACTGCTAGCCACGGAGTCACCTAGTGCAG” it is 4170 fluorescence intensity (a.u.).
The figure for “TAATTGATTAGCAGTAAGGTATTGGTTGTCCAATCTTGCTCGGAGTCACCTAGTGCAG” is 58400 fluorescence intensity (a.u.); for “TTGAATTGCCATTACAAGCAGAAACTGGGTAGCCCAGCAGCGGAGTCACCTAGTGCAG” it is 3260 fluorescence intensity (a.u.).

(Values after publication PMC7819943, “Rice protein-binding microarrays: a tool to detect cis-acting elements near promoter regions in rice”.)
